± gives the standard deviation of the averaged measurements. This is one part of the list.
tested on: PfAP2-G AP2 domain (GST-tagged); test: gcPBM binding intensity (ln(normalized median fluorescence intensity)); higher = stronger DNA binding
In short: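 After 1 h on an Agilent 4 × 180k array of primer-extended double-stranded 36-bp intergenic genomic probes and negative controls, bound GST-tagged P. falciparum DNA-binding domains were detected with Alexa488 anti-GST antibody and scanned at 488 nm. The domains had been expressed in E. coli, and binding took place in 1× PBS with 1% milk, 0.2 mg/ml BSA, 0.5% salmon testes DNA and 0.03% Triton X-100. Binding intensity is the highest Masliner-normalised natural-log median intensity across replicate spots of either probe orientation.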

Row | Sequence | gcPBM binding intensity (ln)
1 | TTATTATAAATGTTTTGTACGTACATCCGAAAATAA [XGTACX_site2175] | 11.7 ± 1.2
2 | TATAATCATATTAAGGGTACATATGTGTAAATATTT [XGTACX_site6018] | 11.2 ± 0.65
3 | AAAAATAAAAAAAGCACACACATATATATATATATA [CACACA_site1885] | 10.2 ± 0.69
4 | AAAAAAAAATTATTCACACATATATATATATATATA [CACACA_site5579] | 9.9 ± 0.46
5 | GAACCATAAGGAACGACACACAAAGATAAATAAATA [CACACA_site3472] | 10.06 ± 0.099
6 | AAACAATCTAAAAGTAGTACAATAAAAATATATATA [XGTACX_site5607] | 11.5 ± 1.1
7 | AAATTTGCTTTTATTTTACACACTTGCTCCTGTTGT [CACACA_site8276] | 10.04 ± 0.064
8 | ATAATATTTTAATGCACACACACAAAAAAAAAAAAA [CACACA_site2891] | 10.2 ± 0.46
9 | AATATTTTATTTTGGGTGCAAAAGAATATTATTTCA | 10.1 ± 0.3
10 | TATATATATATATTACGTACATAGAACTTTATAAAA [XGTACX_site4485] | 11.5 ± 0.98
11 | TGATATTTACAAATATTAAGATCTTATATTTTTTTT [CACACA_negctrl_site617] | 9.48 ± 0.28
12 | GTGTGAAACATAAACACACACAAAAAGAAAAAATAG [CACACA_site1227] | 10.02 ± 0.035
13 | AATATAAATATTAAAACACACATAAAAAGATTATTA [CACACA_site1764] | 9.725 ± 0.078
14 | TATTACATAATACAAAGTACATATATTTTTTTATTT [XGTACX_site7061] | 10.9 ± 0.59
15 | GTATATATATATATATGTACTAATTAGTAGTTTACG [XGTACX_site6274] | 11 ± 0.56
16 | ATATTTATACATAAATGTACTTTTATATATTTAATA [XGTACX_site3020] | 11.1 ± 0.8
17 | AATATTATAAATGATACACACTTAAAATACACGCAC [CACACA_site7305] | 10.4 ± 0.31
18 | AGCACATATATATTATGTACATATAACTTCCCAGTG [XGTACX_site7095] | 11.2 ± 0.62
19 | ATTTATTAATATCCCAGTACTCATGGGGAATAATGA [XGTACX_site4014] | 11.1 ± 0.74

Row | Sequence | gcPBM binding intensity (ln)
20 | AATATATAATATATATGTACTTATATATAAAAGATA [XGTACX_site7635] | 11.3 ± 0.81
21 | TTGTGTAAAGGTATTATTGTATTATTCAAAATAAAA [XGTACX_negctrl_site167] | 10.1 ± 0.4
22 | TTAAAGCACCCATGCACACACACAAAGGAAAAGAAA [CACACA_site233] | 10.3 ± 0.46
23 | CATATATATTTGTTCACACACACACTAATAAAAAAA [CACACA_site8787] | 10.4 ± 0.3
24 | TGGAGGAACCTCATATGTACGTATAAATATATATTT [XGTACX_site5603] | 11.6 ± 1.1
25 | ACAATAAACATATATACACACACAAAAAAAAAAACA [CACACA_site8033] | 10.1 ± 0.47
26 | ATCAAATAGAGACACACACACCTAAACATAAAAGAA [CACACA_site7321] | 10.1 ± 0.2
27 | TGATAAATTAAAAATTGTACTATTATAATAATATAT [XGTACX_site6615] | 10.8 ± 0.61
28 | TTTATATAAATTTATTCACACAACTAATTTTTTAAA [CACACA_site4848] | 9.8 ± 0.12
29 | GGGGGAATTTACATGGGTACACATGTATTAAAAAAT [XGTACX_site4130] | 11.6 ± 1
30 | TTTTTCTTACATGAGTGTACACACTTTTTTTCAGAA [XGTACX_site138] | 11.7 ± 0.83
31 | CATCTTATATAATCATGTACATATAGAGACTTCTTT [XGTACX_site7685] | 11.1 ± 0.63
32 | TTATATGTATGGAGGTTTTTGTATATAGATATATAG [CACACA_negctrl_site177] | 9.81 ± 0.028
33 | ATGTCATATAATAGTACACACATGAAAATATAAATA [CACACA_site3215] | 11.4 ± 0.95
34 | ATAAAAAAAGGACACACACACATATATTTATTTATA [CACACA_site7438] | 11.4 ± 0.97
35 | AAAAAAAAAAAAAATAGTACAATACCCAAATATAAC [XGTACX_site6684] | 11.3 ± 0.74
36 | AATATAAACAAACACACACACATATATATATATATT [CACACA_site5592] | 9.97 ± 0.085
37 | ACGCTACATAAATACGTGCACATCTTTTTGTGTATA [GTGCAC_site9675] | 10.5 ± 0.29
38 | ACTATTAAAATGAATACACACAAATATAAAAATATA [CACACA_site4145] | 10.06 ± 0.071

Row | Sequence | gcPBM binding intensity (ln)
39 | GGTAGGGATTATACCACACACACATACACATAAATA [CACACA_site3179] | 10.4 ± 0.4
40 | ATAGTCTTAATGACTACACACCTAACTATGCATGCA [CACACA_site5084] | 9.88
41 | ATACAGTTGCATATGGTGCACGAATAATACACCTAT | 10.4 ± 0.2
42 | TGGTAGTATATCATAGAAATCATTGTATAACAAATA [XGTACX_negctrl_site569] | 9.915 ± 0.035
43 | AAAAAAAAAAAAAAAACACACAAATCATAAATAAAT [CACACA_site478] | 10.3 ± 0.42
44 | AAATAATATTTTTTTTTTTTTTTTTTTTTATGTTAT [CACACA_negctrl_site809] | 9.45 ± 0.028
45 | TGTATTATATATACACAAATATTTATGTGTGTGTTT [XGTACX_negctrl_site475] | 10.1 ± 0.11
46 | TTTTTTTGTATTTGTTTATTTAATGATAAAATTAAA [CACACA_negctrl_site225] | 10 ± 0.3
47 | ATTTTTCTTTTTAATACACACAAAAGTGATACAAAC [CACACA_site3923] | 10.4 ± 0.35
48 | ACATATATATATTCTACACACTTATAATATAATACA [CACACA_site2461] | 10.2 ± 0.16
49 | TTGTTCTATTTAAGTAGTACATACACACACATATAC [XGTACX_site8484] | 11.5 ± 0.71
50 | ACTAAACTAATATGTACACACATATAACATTAATTT [CACACA_site7128] | 11.4 ± 0.93
51 | TTTCGTTCATAAAAAAGTACATATGAGCAAAAGGTA [XGTACX_site8936] | 11.5 ± 1.1
52 | TATATATATATATATAGTACATATTTATATATGAAA [XGTACX_site8488] | 10.8 ± 0.57
53 | GAATTAAAATAATACGTACACACATGTATAATACAT [CACACA_site1004] | 11.7 ± 1.2
54 | CACAATACTTTCATCACACATATATATATATATATA [CACACA_site4677] | 10.2 ± 0.26
55 | ACCCATTGCTCACGTGCACACATAGAAAAATAATTC [CACACA_site4389] | 10.8 ± 0.58
56 | ATAACATAAGGAAATACACACATATATAAGTATATA [CACACA_site778] | 10.02 ± 0.021
57 | TATGTATATATTTACGCATGCTACTCTATTTTGAGA [TGCATGCA_site990] | 9.76 ± 0.26
